# Assay results: the supplement of paper PMC11417369
# Some of the results follow.
# System: PfSIP2 AP2 domain 1 (GST-tagged)
# Test: gcPBM binding intensity (ln(normalized median fluorescence intensity)); higher = stronger DNA binding
# How it was run: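 Using an Agilent 4 × 180k array, primer-extended double-stranded 36-bp intergenic genomic probes and negative controls were exposed for 1 h to GST-fused P. falciparum DNA-binding domains expressed in E. coli. Binding was carried out in 1× PBS with 1% milk, 0.2 mg/ml BSA, 0.5% salmon testes DNA and 0.03% Triton X-100, and protein was detected with Alexa488 anti-GST antibody and a 488 nm scan. Binding intensity is the highest Masliner-normalised natural-log median intensity across replicate spots of either probe orientation.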
row,Sequence,gcPBM binding intensity (ln)
1,CTGTATTCATAATTCACACAAATGGTTTATATGAAT [CACACA_site4315],7.03
2,CATACATACAGATATACACACATATATAATAATATA [CACACA_site5477],7.14
3,CATATTTGCACTTTCACACATAAATATATAACTATA [CACACA_site6016],8.56
4,TTTAAACAAGGATCCACACACCCCAAAAAAAAAAGA [CACACA_site680],7.28
5,TTTTTATTTTTGTAGTGTACTTTATTTTTTTTGTTT [XGTACX_site8887],7.1
6,CAAAAGTATAATAATACACACACTTTAAAAGTTAAA [CACACA_site3343],6.71
7,TAGATTCTTGAATAAGTGCAAAATATAATATTTATT,8.09
8,AAAAATAAAATAAAATAAAATAAACATACCATATGT [CACACA_negctrl_site594],6.92
9,TTACAAATGGTTTACACACACATAATTGTATCAATT [CACACA_site4167],6.87
10,TAATATATGAGAAATTGTACAGAAAGGAATATGCTT [XGTACX_site5300],7.06
11,TATATATGTTCAATATGTACATATATATAAGTGTAT [XGTACX_site5157],7.13
12,AAGAAATATTTATACACACACACAAACATATATATA [CACACA_site1912],7.37
13,ATATTATTGTAGAAATGTACATATATATATATATAT [XGTACX_site1882],9.27
14,AATACACAAATATATTGTACATATATATATATATAT [XGTACX_site2440],9.59
15,ACTTATTATTAATATTGTACTCTTGAAAATTGTGGA [XGTACX_site6315],7.1
16,CATATATAAATATAAATATATATATATATATATATG [XGTACX_negctrl_site493],7.56
17,ATATATATTTTTTAAACACACACATAAATATTTGTG [CACACA_site8936],7.24
18,TATATATATATATGTGCATGTTCCCCATGCTTCCAT [TGCATGCA_site366],9.35
19,AAAATTATAATAATATGTACTTAAAAAATTTATATA [XGTACX_site632],7.12
20,AATATATATATATATAGTACATATTTTTATTCATTA [XGTACX_site2156],7.26
21,TATATGTATTTATATACACACATATTCTTTTGACAC [CACACA_site1206],7.07
22,TTCTTCAAGGAAAACACATGCGCATTTTCACCAATT [TGCATGCA_site11],7
23,ATATATATATATATATGTACATATGTATATTTTTTT [XGTACX_site1299],9.07

row,Sequence,gcPBM binding intensity (ln)
1,ATTTATTTATTTATTTGTACATATAAATATATCAAA [XGTACX_site7383],7.13
2,TATATTTATTTATACACATGCATATTTTAAGGGCTC [TGCATGCA_site885],7.24
3,CATATAATTATATATCGTACATATTAATATAATTAC [XGTACX_site401],7.04
4,AAAGATGTTATATATATGTATATATATATGTAATAT [TGCATGCA_negctrl_site386],7.03
5,AGTATACAGATATATACACACATATATTTATTTATA [CACACA_site6279],6.93
6,AGATATAGGAAAATAATATATATATATTTTTTTTTT [CACACA_negctrl_site461],6.93
7,ATATATATATATATATGTACTTATAAGGTATATTTA [XGTACX_site3327],9.28
8,AAAAAGAAAAAACTTACACACATATATACAGACATG [CACACA_site550],7.16
9,TTATAATCCATAATTGCACACAATATATTCATATTT [CACACA_site3916],7.04
10,AATATACAATAAAGGTGTACACATATATGATGCAAG [XGTACX_site7607],7.7
11,TGGTTAATATGTGAAAGTACATATTATATTAAAATG [XGTACX_site2636],7
12,TACAGATAATATATTGCACACGTCAGAATAATATAG [CACACA_site5036],7.31
13,TATAACTTTTTTATTACACACCTATGCAATATTATA [CACACA_site6570],7
14,ATAAAATAAGATCTTTTTTTTTTTTTTTTCTTTTCT [XGTACX_negctrl_site73],6.42
15,AACAAATAAATAAATAAAAAGCAAATATGTCTATAT [GTGCAC_negctrl_site414],7.08
16,ATATATATATTCCACACACACACAAAAAAAAAAAAA [CACACA_site3648],8.3
17,TTTTTTTTTTTTTTTGCACACAGGGTGTAGGACAAG [CACACA_site2842],7.66
18,CATTTGATAAGATACACACACAAGGAAAAAAATAAA [CACACA_site350],6.98
19,TTATAATATCTATATATCTTTTACATTTATAAGTTT [CACACA_negctrl_site1473],6.76
20,TATAATAATATTAACACACGTACAAAAGCAAACAAC [CACACA_site3494],7.96
21,GTCTATTCAAAAAAGTGTACGGACATATAAACATAC [XGTACX_site6516],7.68
22,TTAGCTATGATATATACACACCAACGAACGAAGAAA [CACACA_site6657],7.12
23,TGCAGTCTGGAGAAAAGTACATAGTATCTGGTATCT [XGTACX_site2545],7.02

row,Sequence,gcPBM binding intensity (ln)
1,TTTTTTTTTTTTTCAAGTACATAACTTACCCCTTTT [XGTACX_site6207],7.14
2,TTATATGCATAAAAACGTACAAAAATGTATTCATGT [XGTACX_site2215],7.07
3,GTTATAGAAGCATTCACACACACACCCACATACACA [CACACA_site1465],7.3
4,AAACGATTACTGTGTACACACATAGTTATAAACATA [CACACA_site5195],7
5,GAATGTTAACGTTGCACACAAAAAAAAAGTATACAT [CACACA_site2415],7.32
6,TTACATAATATATGTACACACGCAAATACTTAGAAT [CACACA_site320],7.17
7,AGGATATGCAGACACACACACATATATATATATATA [CACACA_site2201],9.61
8,TTTTTTAATAATAGGAAAATGAATATTATATCGAAT [TGCATGCA_negctrl_site543],6.92
9,ATATATGTGTATGTATGTACTCATTTTTGTATATAT [XGTACX_site490],7.08
10,AAACAAAGAAAGAACACACATACACAATATACCTAC [CACACA_site2835],6.89
11,TTATATATTTATATTTGTACGTATAAATTTTTTTTT [XGTACX_site2833],7.02
12,TATTTTGAAAAAGTTGCACACAAAATTTAAAAAAAA [CACACA_site8470],7.42
13,CATTTAAATTATAAGTGTACACGATCATATTTCATC [XGTACX_site349],7.08
14,ATAATGATATATTATAAACACACAAAGATGAATATA [CACACA_site8914],6.86
15,CCAACATTTTTTAGAAGTACATTTTTATATTTATTA [XGTACX_site5179],6.96
16,TATATATATATATATGTACACACATATATACCTTTC [CACACA_site8854],9.28
17,AAATAAAAACATAACAGTACAGTTAACATTTTTATA [XGTACX_site3479],6.89
18,AGGTACTTTTTTAAAACACACATATAATATATACAC [CACACA_site1065],7.24
19,GATGGAAGGTGAAAGCGTACTTATTATAGTAATATA [XGTACX_site303],6.85
20,TGTAATAATCTTACATGTACATACATATATTATATA [XGTACX_site4012],7.33
21,TACATTCATGTGTATTGTACAAACTATTTTATAATA [XGTACX_site7744],6.85
22,TATATAATATATATAGTGCATAAGTTCAAAAGAATA [GTGCAC_site9805],8.73
23,GCATATTTTATAATTTTACACACCATATAAAATAAT [CACACA_site8904],7.2

row,Sequence,gcPBM binding intensity (ln)
1,TACATATTTTTTATGTGTACATATTTTTTATGTGTA [XGTACX_site443],7.14
2,ACAATCCTAACGACATGTACAAATATATATATTTTT [XGTACX_site7335],7.09
3,AGAAGTTTAAAAAGCACACAAAAAAAAAAAAAAAGA [CACACA_site3309],6.85
4,AAATAAAATAAAAACATGCACACTTTATTTTTTTTA [CACACA_site2800],8.9
5,AAAATCGTGTTCTGAATACACACTAATACAAAGTTG [CACACA_site3985],6.85
6,ATTCATATATATTATACACACACATATATAAATATA [CACACA_site8228],7.4
7,AAAAATACCTGAATATGTACATATGATCAATGGGCC [XGTACX_site887],6.98
8,TAAAAATATAAATTTTGTACGTAAAAAATGGTTCTT [XGTACX_site1506],6.98
9,TATTCTATATAATAATGTACGTGATTTAAATTTTCA [XGTACX_site6650],6.98
10,TGACCGTTTTAAGAGTGTACAAAAAAAAAAAAAAAA [XGTACX_site4141],7.04
11,ATTCACATACATTACTTACACACCATATTAATATAT [CACACA_site459],7.43
12,TAAAAAATAAGATATACACACATATATATATATATA [CACACA_site2324],9.42
13,TAACATATTAATAACATATTTATAATATATTAATAA [TGCATGCA_negctrl_site243],6.67
14,AAAAAAAAAAAAAAGGAACACACAAGTAACAATAAA [CACACA_site8792],7.09
15,AATTATACTTCCTTCACACAGTTACATCATATATTA [CACACA_site5942],7.09
16,TTCAAATTGTTTATATGTACTTATAAAAATTGTCTG [XGTACX_site977],7.1
17,AGACCTTTAATTTGTGTGCACATAATTAGTGTACAT [GTGCAC_site9434],8.49
18,ATTAAAAAAAAAAAAAGTACTTATAATTATACTCGT [XGTACX_site4852],7.05
19,TTATATTATATATATGTGCACATTTTTAAACTTGGA,8.77
20,ACAAATAAAAATATTACACACACTATTATATTGATA [CACACA_site1494],7.05
